# Test results published in PubChem BioAssay (Tox21).
# “And” between values parts separate entries of the source, which are not always exact repeats. Equal values may be shown once. The shares of active, inactive and inconclusive entries below differ from those in the screen. Where the call is inconclusive, the potency comes from a doubtful curve fit. More than one record can exist for a structure, and the calls need not agree. The source made the active and inactive calls. Unless noted, calls come from the whole dose curve; as a rule, active = well fitted curve in the direction sought with a large enough effect in the repeat runs; inconclusive = weak or mixed curves; inactive = no such curve, though single readings can be large; an effect the other way counts as inactive or inconclusive.
# What was measured:
# [1] = qHTS assay for identifying genotoxic compounds that show differential cytotoxicity against isogenic chicken DT40 cell lines with known DNA damage response pathways - Rev3 mutant cell line (AID 743014); details: chicken DT40 Rev3-/- viability, CellTiter-Glo, 40 h; activity, negative = cytotoxicity: at 68.4 µM (top of the series); note: nearly all actives have a fitted effect of over 55% in size
# [2] = qHTS assay to identify small molecule antagonists of the androgen receptor (AR) signaling pathway - cell viability counter screen (AID 743033; note: nearly all actives have a fitted effect of over 45% in size); details: AR-bla HEK293 viability, CellTiter-Glo luminescence, 16 h; activity change, negative = cytotoxicity: at 58.5 µM (top of the series)
# [3] = target: Glucocorticoid receptor (Homo sapiens) (UniProt P04150); assay: qHTS assay to identify small molecule antagonists of the glucocorticoid receptor (GR) signaling pathway (AID 720692; active = well fitted inhibition curve with a large enough effect in the signal ratio in the repeat runs, not every such curve was filed as active; inconclusive = weak or mixed curves, or effect the other way; inactive = no such curve, though single readings can be large or run the other way; the % refers to the signal ratio); details: GR-bla HeLa, beta-lactamase FRET ratio, dexamethasone-stimulated, 18 h
# Sequence of UniProt P04150 (P04150 whole entry, looked up): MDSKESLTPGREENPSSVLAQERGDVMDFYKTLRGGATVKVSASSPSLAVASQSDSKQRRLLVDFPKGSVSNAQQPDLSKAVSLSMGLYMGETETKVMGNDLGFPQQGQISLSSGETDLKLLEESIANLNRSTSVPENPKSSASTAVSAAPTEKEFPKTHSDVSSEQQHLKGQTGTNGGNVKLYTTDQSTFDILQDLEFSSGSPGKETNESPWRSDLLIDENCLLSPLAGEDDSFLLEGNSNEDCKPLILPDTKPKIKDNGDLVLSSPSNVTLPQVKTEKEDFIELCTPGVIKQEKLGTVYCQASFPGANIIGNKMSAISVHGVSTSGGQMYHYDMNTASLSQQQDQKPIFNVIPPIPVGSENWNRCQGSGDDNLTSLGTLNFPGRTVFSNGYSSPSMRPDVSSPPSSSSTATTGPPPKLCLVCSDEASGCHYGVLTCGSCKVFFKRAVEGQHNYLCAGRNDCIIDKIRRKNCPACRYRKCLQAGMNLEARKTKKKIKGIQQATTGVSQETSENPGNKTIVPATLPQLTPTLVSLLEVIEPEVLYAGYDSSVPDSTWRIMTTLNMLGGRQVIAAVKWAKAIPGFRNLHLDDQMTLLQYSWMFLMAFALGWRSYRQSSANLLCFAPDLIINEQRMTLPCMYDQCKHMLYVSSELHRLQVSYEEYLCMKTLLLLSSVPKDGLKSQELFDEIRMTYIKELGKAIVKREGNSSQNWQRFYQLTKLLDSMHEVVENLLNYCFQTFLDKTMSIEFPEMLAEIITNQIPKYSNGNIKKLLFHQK
# Outline: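 HeLa GR-bla cells; cmpd + dex 5 nM final, 18 h 37 C; LiveBLAzer B/G FRET substrate 2 h RT; fluorescence intensity read. Antagonist mode, qHTS.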
# [4] = qHTS assay for identifying genotoxic compounds that show differential cytotoxicity against isogenic chicken DT40 cell lines with known DNA damage response pathways - Rad54/Ku70 mutant cell line (AID 743015); details: DT40 Rad54/Ku70 mutant viability, CellTiter-Glo, 40 h; activity change, negative = cytotoxicity: at 66.8 µM (top of the series); note: nearly all actives have a fitted effect of over 60% in size
# [5] = qHTS assay to identify small molecule antagonists of the glucocorticoid receptor (GR) signaling pathway - cell viability counter screen (AID 720693); details: GR-bla HeLa viability, CellTiter-Glo luminescence, 18 h, with 5 nM dexamethasone present; viability change, negative = cytotoxic: at 58.5 µM (top of the series) unless noted; note: nearly all actives have a fitted effect of over 55% in size
# [6] = qHTS assay for identifying genotoxic compounds that show differential cytotoxicity against isogenic chicken DT40 cell lines with known DNA damage response pathways - wild type cell line (AID 743012); details: DT40 wild type chicken cells viability, CellTiter-Glo, 40 h; activity change, negative = cytotoxicity: at 68.4 µM (top of the series) unless noted; note: nearly all actives have a fitted effect of over 60% in size
# Outline: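 Wild type DT40, 300 cells/well, ~0.5 h settle at 37 C/5% CO2; compounds in DMSO added by pintool; 40 h at 37 C/5% CO2; CellTiter-Glo, 30 min RT; luminescence.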
# [7] = target: Glucocorticoid receptor (Homo sapiens) (UniProt P04150); assay: qHTS assay to identify small molecule agonists of the glucocorticoid receptor (GR) signaling pathway (AID 720691; active = well fitted activation curve with a large enough effect in the signal ratio in the repeat runs, not every such curve was filed as active; inconclusive = weak or mixed curves, or effect the other way; inactive = no such curve, though single readings can be large or run the other way; the % refers to the signal ratio); details: GR-bla HeLa, beta-lactamase reporter ratio, 18 h
# Outline: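 Fluorescence intensity from LiveBLAzer B/G FRET substrate (2 h, room temperature) reports beta-lactamase expression driven by the glucocorticoid response element in GR-bla HeLa cells after 18 h compound exposure at 37 C.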
# [8] = activity change, negative = inhibition: at 58.5 µM (top of the series) unless noted
# [9] = activation: at 62.4 µM (top of the series) unless noted
# % is set by controls: 0 for no effect and ±100 for the full control effect; potency is the fitted concentration of half-maximal effect; tags give direction and shape of the fitted curve or compound fluorescence and quenching.
smiles,measurement,setting,value
COCCC#N,Potency,[1],inactive
same,Potency,[2],inactive
CCCC[n+]1cccc(C)c1,Potency,[3]; [8],inactive
same,Potency,[1],"inconclusive: 60.9 µM [cytotoxic, partial curve, poor fit]"
Nc1c(Cl)c(F)nc(OCC(=O)O)c1Cl,Potency,[1],"inconclusive: 68.5 µM [cytotoxic, partial curve, poor fit]"
same,Potency,[4],inactive
COP(N)(=S)Oc1ccccc1C(=O)OC(C)C (stereo not drawn),Potency,[5],inactive
same,Potency,[1],inactive
O=NN1CCCCC1,"activity change, negative = inhibition",[3]; [8],inconclusive: 45.8%
same,Potency,[5],"inconclusive: 54.7 µM [rising, single point]"
same,Potency,[6],inactive
O=C(N[C@H]1CN2CCC1CC2)c1cc2ccoc2cn1,Potency,[3]; [8],inactive
same,Potency,[1],"inconclusive: 61.1 µM [cytotoxic, partial curve]"
same,Potency,[4],"inconclusive: 30.6 µM [cytotoxic, single point]"
C=CCc1ccc(OC(=O)Cc2ccccc2)c(OC)c1,Potency,[6],"inconclusive: 77 µM [cytotoxic, single point]"
same,Potency,[1],"inconclusive: 19.3 µM [cytotoxic, full curve, poor fit]"
same,Potency,[4],"inconclusive: 68.6 µM [cytotoxic, single point]"
CCCCCCC1CCOC1=O (stereo not drawn),Potency,[1],inactive
CNC(=O)N(C)c1nnc(C(C)(C)C)s1,Potency,[5],inactive
Clc1cccc(Cl)c1,Potency,[7]; [9],inactive
same,Potency,[6],inactive
CCOP(=S)(OCC)SC(CCl)N1C(=O)c2ccccc2C1=O (stereo not drawn),Potency,[5],inactive
same,Potency,[1],active: 43.3 µM
same,Potency,[2],"inconclusive: 49 µM [cytotoxic, partial curve]"
CCCCCCCCCCn1cc[n+](C)c1,Potency,[7]; [9],"inconclusive: 8.8 µM [inhibitor, partial curve, poor fit] and inconclusive: 15.9 µM [inhibitor, partial curve, poor fit]"
same,activation,[7]; at 62.4 µM (top of the series),inconclusive: -15.3% and inconclusive: -18.1%
same,activation,[7]; at 79.2 µM (top of the series),inactive: -8.34% and inconclusive: -16.2%
same,Potency,[3]; [8],active: 15.6 µM and active: 39.1 µM
same,Potency,[5],"inconclusive: 49.2 µM [cytotoxic, partial curve] and inconclusive: 49.1 µM [cytotoxic, partial curve, poor fit] and inconclusive: 48.9 µM [cytotoxic, partial curve]"
C[C@]12CCC(=O)C[C@@H]1CC[C@@H]1[C@@H]2CC[C@]2(C)[C@@H](O)CC[C@@H]12,activation,[7]; [9],inconclusive: -12.5% and inconclusive: -16.3%
same,Potency,[5],"inconclusive: 19 µM [cytotoxic, partial curve] and inconclusive: 43.1 µM [cytotoxic, partial curve]"
same,Potency,[1],"inconclusive: 33.5 µM [cytotoxic, single point] and inconclusive: 6.78 µM [cytotoxic, full curve]"
same,Potency,[4],"inconclusive: 33.5 µM [cytotoxic, single point]"
same,Potency,[2],inactive
NC(=O)O,Potency,[1],inactive
CCN(CC)CCc1c[nH]c2ccccc12,Potency,[6],"inconclusive: 101 µM [cytotoxic, partial curve, poor fit]"
Cc1cccc(Cc2cnc[nH]2)c1C,Potency,[6],"inconclusive: 29.8 µM [cytotoxic, single point]"
same,Potency,[1],"inconclusive: 33.5 µM [cytotoxic, partial curve, poor fit]"
OCCN(CCO)CCO,Potency,[6],"inconclusive: 2.44 µM [rising, partial curve]"
same,"activity change, negative = cytotoxicity",[6],inconclusive: 12.4%
same,Potency,[1],"inconclusive: 10.9 µM [cytotoxic, partial curve, poor fit]"
O=Cc1ccccc1,Potency,[6],inactive
Clc1ccccc1Cl,"activity change, negative = inhibition",[3]; [8],inconclusive: -0.486%
same,"activity change, negative = inhibition",[3]; at 58.5 µM (top of the series),inactive: -0.71%
same,"activity change, negative = inhibition",[3]; at 78.9 µM (top of the series),inactive: 3.84%
same,Potency,[6],inactive
same,Potency,[4],inactive
O=C(Cl)OCc1ccccc1,Potency,[7]; [9],inactive
same,Potency,[3]; [8],inactive
O=[N+]([O-])C(Br)(CO)CO,Potency,[5],inactive
same,Potency,[4],active: 26.6 µM and active: 12.2 µM
same,Potency,[2],"inconclusive: 43.6 µM [cytotoxic, partial curve]"
ClC1=C(Cl)[C@]2(Cl)[C@@H]3[C@H]4C[C@H]([C@@H]5O[C@H]45)[C@@H]3[C@@]1(Cl)C2(Cl)Cl,Potency,[3]; [8],"inconclusive: 48.9 µM [inhibitor, partial curve]"
same,Potency,[1],"inconclusive: 11.9 µM [cytotoxic, partial curve]"
same,Potency,[4],"inconclusive: 33.5 µM [cytotoxic, single point]"
Brc1cccc(-c2ccccc2)c1,activation,[7]; [9],inconclusive: 0.557% [phenotype inactive] [at 79.2 µM]
Cc1ccc2ccccc2c1,Potency,[1],inactive
O=C1C=CC(=O)C=C1,Potency,[1],active: 9.69 µM
OC(c1ccccc1)(c1ccccc1)C1CCNCC1,"activity change, negative = inhibition",[3]; [8],inconclusive: -19.1% [at 27 µM]
same,Potency,[1],inactive
same,Potency,[4],inconclusive: 14.3 µM [cytotoxic]
CNC(=O)CSP(=O)(OC)OC,Potency,[1],"inconclusive: 19.3 µM [cytotoxic, full curve, poor fit]"
N#CN=C1SCCN1Cc1ccc(Cl)nc1,Potency,[4],inconclusive: 77 µM [cytotoxic]
COP(=O)(O)OC,Potency,[7]; [9],inactive
same,Potency,[4],inactive
CC(=O)/C=C/c1ccccc1,Potency,[6],inactive
same,Potency,[1],"inconclusive: 15.4 µM [cytotoxic, partial curve]"
CSc1nnc(C(C)(C)C)c(=O)n1N,Potency,[5],inactive
